Reference: the supplement of paper PMC3334620
The full ranking holds about 33,000 sequences; the median of “E-score (-0.5 to 0.5)” is about -0.035, and the highest 2% start at about 0.35. The list shows a part of the results.

Each sequence was assayed against T1, Pdr3 (UniProt P33200) (assay: PBM E-score (8-mer binding enrichment) (E-score (-0.5 to 0.5)); higher = stronger / more preferred TF binding; most listed sequences are background and not binding sites). Conditions: protein concentration: 200 nM; construct: GST-full length.
T1 sequence: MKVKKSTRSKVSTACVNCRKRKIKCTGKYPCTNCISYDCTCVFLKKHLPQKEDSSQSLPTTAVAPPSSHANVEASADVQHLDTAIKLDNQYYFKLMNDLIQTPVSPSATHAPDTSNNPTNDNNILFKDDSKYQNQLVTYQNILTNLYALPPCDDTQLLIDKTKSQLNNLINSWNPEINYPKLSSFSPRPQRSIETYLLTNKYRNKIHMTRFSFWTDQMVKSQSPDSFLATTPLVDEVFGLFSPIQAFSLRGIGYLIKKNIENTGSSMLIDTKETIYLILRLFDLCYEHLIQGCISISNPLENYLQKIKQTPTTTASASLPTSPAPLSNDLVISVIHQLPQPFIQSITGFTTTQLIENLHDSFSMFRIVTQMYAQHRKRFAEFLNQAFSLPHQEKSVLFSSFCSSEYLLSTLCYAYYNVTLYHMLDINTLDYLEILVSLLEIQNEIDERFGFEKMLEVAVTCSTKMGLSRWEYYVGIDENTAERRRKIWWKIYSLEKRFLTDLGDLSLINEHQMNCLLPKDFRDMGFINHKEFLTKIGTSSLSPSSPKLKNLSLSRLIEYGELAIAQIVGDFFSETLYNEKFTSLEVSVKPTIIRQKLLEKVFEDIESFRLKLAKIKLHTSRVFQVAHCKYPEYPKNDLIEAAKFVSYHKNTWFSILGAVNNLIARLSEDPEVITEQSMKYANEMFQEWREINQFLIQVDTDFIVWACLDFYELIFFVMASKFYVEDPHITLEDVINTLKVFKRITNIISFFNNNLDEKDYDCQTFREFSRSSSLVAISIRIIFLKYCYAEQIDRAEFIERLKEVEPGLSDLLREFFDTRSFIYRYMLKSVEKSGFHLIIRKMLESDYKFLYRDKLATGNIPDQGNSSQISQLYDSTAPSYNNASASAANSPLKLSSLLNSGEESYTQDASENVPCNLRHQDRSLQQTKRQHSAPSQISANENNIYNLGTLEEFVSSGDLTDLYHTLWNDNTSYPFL
How it was run: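 Yeast transcription factors, full-length or as DNA-binding domains, were expressed with a GST tag using PURExpress in vitro transcription/translation. At about 100-200 nM they were applied to universal all-10-mer Agilent arrays, double-stranded by primer extension on fresh or once-stripped slides. Fluorescent anti-GST detected bound protein, and masliner normalised the scans. E-scores for ungapped eight-base words, pooled with reverse complements, came from the Universal PBM Analysis Suite.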

Row | Sequence | PBM E-score
1 | GGTTGACA | -0.0746
2 | ACATAACT | -0.0475
3 | CAGGTAAA | -0.0305
4 | ACCAACCA | -0.0183
5 | CAGGGACC | -0.246
6 | CGTCGTTC | 0.196
7 | CATGCGAG | -0.0214
8 | GCTGAGCC | 0.00413
9 | AAGAAAGG | -0.194
10 | AGCTTCAG | -0.177
11 | AGAAAATG | -0.0679
12 | ACAGGGAT | -0.107
13 | ATCGAAGC | -0.0438
14 | ACCTACGA | -0.187
15 | CCAGTCGC | -0.0148
16 | AGTGCCGC | 0.18
17 | CAGGCCTA | -0.0696
18 | CCTCAGAA | -0.326
19 | CACTGATA | -0.275
20 | AGAGTTCG | -0.00345
21 | GTGACGTA | -0.0979
22 | AGTTCCAG | -0.0101
23 | CGTAAGGA | -0.267
24 | ATCGATGA | 0.00783
25 | CCTCTCCC | -0.0732

Row | Sequence | PBM E-score
26 | CGGTAACG | 0.123
27 | GGCGAGCC | 0.125
28 | CGGCCTAA | 0.0622
29 | CTAGCGAA | -0.246
30 | AGATGAAA | 0.00513
31 | CATCGATC | 0.00807
32 | CAGACGCA | 0.0386
33 | GATGGGAA | -0.0825
34 | CGCCCCGA | 0.273
35 | AGGTTAAG | -0.299
36 | CCCCAACA | -0.274
37 | CCTGAAGG | -0.183
38 | GCACAAAC | -0.00413
39 | CAAGTCAA | -0.168
40 | ACAGTCCA | -0.158
41 | TAATGCTA | 0.0108
42 | GGTTCCTA | 0.00217
43 | ACAAGAGG | -0.0926
44 | GATGGGCA | -0.0933
45 | ATCTCCAG | -0.1
46 | CGCTTCCC | 0.0936
47 | AAAATCTG | 0.0512
48 | TAGTAGCA | -0.0498
49 | AAAGCACC | -0.125
50 | ATCTGTGA | 0.0204

Row | Sequence | PBM E-score
51 | CGTATGAG | -0.0564
52 | CAACCATG | 0.0916
53 | AGCTTGAG | -0.147
54 | GTGGCTCA | -0.125
55 | ATTTTCTC | 0.00817
56 | AGTAGCCA | -0.348
57 | AGATTCGA | -0.0157
58 | AAAGACCT | -0.0672
59 | GATTGATA | -0.0756
60 | CATGCTGC | -0.174
61 | CTGATAGA | -0.118
62 | CTCATGCA | -0.171
63 | TTATTAAA | -0.0231
64 | GGCATGCC | 0.324
65 | CTTGTGAA | -0.105
66 | AACGTCAA | -0.146
67 | AATATGGT | 0.183
68 | ATAGGACC | -0.125
69 | AAACGCCA | 0.124
70 | CGTAGTCC | -0.119
71 | AAGGTGCA | -0.0384
72 | CCCTTATA | -0.0578
73 | AAGGAAAG | -0.0481
74 | CTCAAGTC | -0.237
75 | AACGGGGC | 0.0961

Row | Sequence | PBM E-score
76 | GGCTCACC | -0.156
77 | TGCAACAA | -0.162
78 | GTATTAGA | 0.0559
79 | GCGGAGCC | 0.296
80 | TCAAACCA | 0.165
81 | CACTCTAC | -0.0177
82 | ACCAGCAG | -0.264
83 | CGGTGGTC | 0.18
84 | ACATTCAT | 0.0569
85 | AGCCAGGA | -0.151
86 | ATCGGGCA | 0.0375
87 | CTCTATCC | -0.0282
88 | CTTGCTCC | -0.00184
89 | GTCGACTA | 0.0751
90 | GGTTCTAC | -0.112
91 | AATTCAAG | -0.13
92 | ACTTGGGA | -0.118
93 | GCTCAAAA | -0.0599
94 | ATAAGATG | -0.0842
95 | ATACCACC | 0.162
96 | CATGCTAG | -0.223
97 | CATATGTC | -0.0367
98 | CTCCCGTA | -0.0071
99 | AGCCGAAA | 0.14
100 | CGCTGACA | 0.0155

Row | Sequence | PBM E-score
101 | GGCTTGCA | -0.167
102 | GTGCTAAC | 0.0801
103 | AATTTACC | 0.00226
104 | TGGATTAA | -0.102
105 | ACATAGAG | -0.203
106 | CAGGAAGA | 0.0315
107 | ACGTCTGA | -0.0905
108 | ACAATGCT | -0.171
109 | CTGACACC | -0.0269
110 | ACGGACCA | 0.359
111 | ATCATATA | -0.0266
112 | CCACAATC | -0.149
113 | CTCCTATA | -0.357
114 | CGTGCCTC | -0.0179
115 | GCACTTAC | -0.155
116 | TAAGGACA | -0.149
117 | GAACTGAA | 0.108
118 | AGTCCGGC | 0.216
119 | CCTCGCTC | 0.102
120 | TGGTTCAA | -0.00904
121 | ACGTGACT | -0.294
122 | CCTAGCAA | -0.294
123 | GACACGAC | 0.0509
124 | CAAAGAGG | -0.176
125 | GATTCATA | -0.0226

Row | Sequence | PBM E-score
126 | AATCGACT | -0.208
127 | CTAGGAGC | -0.12
128 | CAATAGCC | -0.221
129 | GCCCCCAA | -0.272
130 | ACATTGGT | -0.14
131 | GGTAGAAC | -0.0218
132 | ACTATAAG | -0.165
133 | GAGGTGGC | -0.208
134 | CGACCGCA | 0.158
135 | AATGACTA | -0.208
136 | AAGATGAT | -0.298
137 | ATGTGGGG | -0.241
138 | AGCTGTAG | -0.0614
139 | AAGGTAGA | -0.136
140 | AGATTTAA | 0.0063
141 | CACAGGTG | -0.194
142 | CTGCCCAA | 0.0511
143 | GTTGACAA | 0.0346
144 | AACTACCC | -0.129
145 | ATACGTGC | 0.0169
146 | GAGTTGCA | -0.047
147 | CTCGAATA | -0.107
148 | CCGCACAA | 0.108
149 | ATGCACCG | 0.122
150 | AAAGAATT | 0.0723

Row | Sequence | PBM E-score
151 | ACACGCGC | 0.0939
152 | CTAAGGCA | -0.135
153 | AATCGTAG | -0.135
154 | CGTCCCAC | 0.0401
155 | AGCTATCA | -0.0259
156 | GTCCAGAC | -0.291
157 | CAGGGTAG | -0.198
158 | AGTCTACG | -0.175
159 | AGCAACAC | -0.0384
160 | GGTCCACC | -0.036
161 | GTAAGCAC | -0.245
162 | TACAAGAA | -0.0181
163 | CCGGGCTA | 0.25
164 | CTAGTCAC | -0.159
165 | GAAAGAAA | 0.0628
166 | GCTACTGA | 0.00622
167 | CAGTGACC | 0.00313
168 | CCTGCAAA | -0.173
169 | AACGGTAA | 0.0993
170 | ACTCCCGA | 0.0347
171 | GTAGGGTA | -0.00998
172 | CGGATTGA | 0.315
